# Results taken from a collection of fitness landscapes (doi:10.1016/j.celrep.2020.107928).
# In all, about 81,000 sequences were measured (“one-hybrid fitness for binding parS DNA”: median about -0.17, highest 2% from about 0.51 on). This is one part of the list.
# B1: Caulobacter ParB omega fusion; a variant is named by its letters at X, in order, B8GW30 (parent)
# chain: MESVVVGEPGMSEGRRGLGRGLSALLGEVDAAPAQAPGEQLGGSREAPIEILQRNPDQPRRTFREEDLEDLSNSIREKGVLQPILVRPSPDTAGEYQIVAGERAWRAAQRAGLKTVPIMVRELDDLAVLEIGIIENVQRADLNVLEEALSYKVLMEKFERTQENIAQTIGKSXSHVANXMRLLXLPDEVQSYLVSGELTAXHARAIAAAADPVALAKQIIEGGLSVRETEALARKAPNLSAGKSKGGRPPRVKDTDTQALESDLSSVLGLDVSIDHRGSTGTLTITYATLEQLDDLCNRLTRGI
# Variants of: B1
# Assay: one-hybrid fitness for binding parS DNA (scaled: cognate 1, non-cognate 0); higher = stronger binding
# Conditions: with parS DNA site
# Summary of the method: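 In E. coli USO, a HIS3 reporter with its site placed 19 bp from the promoter was used to select Caulobacter ParB variants randomised at four specificity codons. Growth lasted 48 hours at 37°C on histidine-free M9 containing 0.1 mM IPTG and 5 mM 3-AT. Fitness was taken as the log change in variant-to-wild-type read ratio from Illumina sequencing of pre- and post-selection plasmids, rescaled between the non-cognate and cognate sites.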
row,Variant,one-hybrid fitness for binding parS DNA
1,CDGK,≤ 0.2
2,SDNH,≤ 0.2
3,TGPI,≤ 0.2
4,ARKN,≤ 0.2
5,NQKL,≤ 0.2
6,WDVT,≤ 0.2
7,SPHN,≤ 0.2
8,MLGI,≤ 0.2
9,RVIE,≤ 0.2
10,HPKL,≤ 0.2
11,VYLY,≤ 0.2
12,GSRA,≤ 0.2
13,WDVR,≤ 0.2
14,KLRA,≤ 0.2
15,NPRY,≤ 0.2
16,QMQY,≤ 0.2
17,IDMW,≤ 0.2
18,LVSP,≤ 0.2
19,DRRI,≤ 0.2
20,NART,≤ 0.2
21,PNRM,≤ 0.2
22,RPVW,≤ 0.2
23,CFAC,≤ 0.2
24,TQTW,≤ 0.2
25,GHQP,≤ 0.2
26,TAMV,≤ 0.2

row,Variant,one-hybrid fitness for binding parS DNA
1,RRES,0.752
2,APHM,≤ 0.2
3,HKEP,≤ 0.2
4,HAHA,≤ 0.2
5,PENA,≤ 0.2
6,GLKF,≤ 0.2
7,QMDN,≤ 0.2
8,VLTW,≤ 0.2
9,HTHI,≤ 0.2
10,PYTL,≤ 0.2
11,TNSI,≤ 0.2
12,CAKA,≤ 0.2
13,RWLR,≤ 0.2
14,CKCC,0.341
15,DRSM,≤ 0.2
16,QLPN,≤ 0.2
17,WKSA,≤ 0.2
18,STEL,≤ 0.2
19,RCVK,≤ 0.2
20,QDTA,≤ 0.2
21,KVKT,≤ 0.2
22,VMHS,≤ 0.2
23,PTYL,≤ 0.2
24,LKTW,≤ 0.2
25,EDSM,≤ 0.2
26,WVEF,≤ 0.2

row,Variant,one-hybrid fitness for binding parS DNA
1,LDTL,≤ 0.2
2,TLGG,≤ 0.2
3,GNKK,≤ 0.2
4,FGTT,≤ 0.2
5,PCFY,≤ 0.2
6,VATR,≤ 0.2
7,PMNS,≤ 0.2
8,KNIE,0.307
9,AMPC,≤ 0.2
10,QQQR,≤ 0.2
11,LNKT,≤ 0.2
12,NVSL,≤ 0.2
13,VWRC,≤ 0.2
14,NALS,≤ 0.2
15,FHNS,≤ 0.2
16,MVHL,≤ 0.2
17,TLAY,≤ 0.2
18,DACN,≤ 0.2
19,RIAL,≤ 0.2
20,VPQD,≤ 0.2
21,HSPA,≤ 0.2
22,CMAE,≤ 0.2
23,MVER,≤ 0.2
24,LLSL,≤ 0.2
25,TWHV,≤ 0.2
26,KTTV,≤ 0.2

row,Variant,one-hybrid fitness for binding parS DNA
1,TDMS,≤ 0.2
2,NVMR,≤ 0.2
3,ASYC,≤ 0.2
4,FWLR,≤ 0.2
5,NVKV,≤ 0.2
6,NPRR,≤ 0.2
7,TVAL,≤ 0.2
8,MSCK,0.204
9,TMFC,≤ 0.2
10,ERFT,≤ 0.2
11,NSLE,≤ 0.2
12,RSMG,0.962
13,VAVC,≤ 0.2
14,KDTE,≤ 0.2
15,PFHH,≤ 0.2
16,ADAE,≤ 0.2
17,HPNM,≤ 0.2
18,YSNR,≤ 0.2
19,DSKY,≤ 0.2
20,KERR,≤ 0.2
21,RGMG,0.604
22,WMMR,≤ 0.2
23,WAQR,≤ 0.2
24,IEVR,≤ 0.2
25,HARF,≤ 0.2
26,YVRR,≤ 0.2

row,Variant,one-hybrid fitness for binding parS DNA
1,RSHN,0.412
2,YCRH,≤ 0.2
3,QLDP,≤ 0.2
4,EIKR,≤ 0.2
5,LCNH,≤ 0.2
6,LDTN,≤ 0.2
7,RSAS,0.998
8,KVPA,≤ 0.2
9,MRNT,≤ 0.2
10,FIFV,≤ 0.2
11,SCKH,≤ 0.2
12,GAHV,≤ 0.2
13,TRWH,≤ 0.2
14,HDRM,≤ 0.2
15,WTRM,≤ 0.2
16,SQSI,≤ 0.2
17,SILL,≤ 0.2
18,TYTN,≤ 0.2
19,PHPI,≤ 0.2
20,RVVP,≤ 0.2
21,VWTV,≤ 0.2
22,ELNA,≤ 0.2
23,RVLR,≤ 0.2
24,RLFY,0.467
25,AWGS,≤ 0.2
26,LRNY,≤ 0.2

row,Variant,one-hybrid fitness for binding parS DNA
1,ITCT,≤ 0.2
2,NCAT,≤ 0.2
3,KWVD,≤ 0.2
4,AYAA,≤ 0.2
5,DNAL,≤ 0.2
6,ETPV,≤ 0.2
7,LFNN,≤ 0.2
8,NRCR,≤ 0.2
9,HSTS,≤ 0.2
10,NVYL,≤ 0.2
11,STDC,≤ 0.2
12,KRKE,≤ 0.2
13,FLVT,≤ 0.2
14,CISN,≤ 0.2
15,VRWH,0.223
16,SVPL,≤ 0.2
17,INKR,≤ 0.2
18,KAMS,≤ 0.2
19,SSSM,≤ 0.2
20,EHVV,≤ 0.2
21,VMNY,≤ 0.2
22,PQTV,≤ 0.2
23,ADVI,≤ 0.2
